Measurements from PubChem BioAssay AID1159614 (National Center for Advancing Translational Sciences (NCATS), 2016).
Among all 45,000 compounds or so, about 65 (0.1%) were called active. The call rests on the fitted dose curve; in most records, active means well fitted activation curve with a large enough effect; inconclusive means small, poorly fitted or top-dose-only effect; inactive means no such curve, though single readings can be large or run the other way. This is one part of the list.

Biological target: Galactocerebrosidase (Homo sapiens) (UniProt P54803)
Sequence of UniProt P54803 (P54803 whole entry, looked up): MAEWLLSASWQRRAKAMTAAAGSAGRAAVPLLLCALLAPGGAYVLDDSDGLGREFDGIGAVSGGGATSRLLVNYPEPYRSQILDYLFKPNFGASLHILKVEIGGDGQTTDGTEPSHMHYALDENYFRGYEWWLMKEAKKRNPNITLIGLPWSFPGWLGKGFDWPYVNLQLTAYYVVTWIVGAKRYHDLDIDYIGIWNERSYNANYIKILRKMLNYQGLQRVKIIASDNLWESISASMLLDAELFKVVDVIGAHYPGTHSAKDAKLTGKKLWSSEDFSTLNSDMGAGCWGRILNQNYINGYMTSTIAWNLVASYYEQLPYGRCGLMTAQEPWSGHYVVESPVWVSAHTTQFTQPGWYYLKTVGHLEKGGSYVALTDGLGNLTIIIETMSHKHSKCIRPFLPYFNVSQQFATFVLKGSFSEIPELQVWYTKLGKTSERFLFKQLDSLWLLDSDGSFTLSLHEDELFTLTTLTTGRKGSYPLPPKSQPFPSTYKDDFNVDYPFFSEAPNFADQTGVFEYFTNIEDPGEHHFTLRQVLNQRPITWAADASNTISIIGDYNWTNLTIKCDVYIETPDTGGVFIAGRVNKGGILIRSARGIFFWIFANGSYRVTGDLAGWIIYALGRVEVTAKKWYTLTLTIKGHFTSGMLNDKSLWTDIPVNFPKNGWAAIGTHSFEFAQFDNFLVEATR
Experiment: A Novel Cell-Based Assay to Identify Small Molecules for B -Galactocerebrosidase; further: 0% is about no effect; nearly all actives have a fitted effect of over 65% in size
Details: 145M-Twi-hGALC-G270D cells (Twitcher mouse brain line with human GALC G270D), HMU-beta-Gal fluorescence, 48 h; series mostly up to 57.5 µM; activation: at the top concentration
Text: Lysosomal storage diseases (LSDs) are caused by genetic mutations in genes encoding proteins important for normal lysosomal function. Globoid cell leukodystrophy (GLD), mostly known as Krabbe disease, is a prototype of the neurological LSDs caused by deficiency of beta-galactocerebrosidase (GALC). In brain specimens of GLD patients, psychosine levels are substantially elevated. At elevated concentrations, psychosine becomes cytotoxic to neuronal cells, particularly to oligodendrocytes (OLG), neural cells responsible for myelin formation. Therefore, the biochemical disturbances in GLD are manifested by different degrees of brain demyelination resulting in a broad spectrum of neurological manifestations. Most of the FDA-approved therapies are based on enzyme replacement therapeutic (ERT) agents, which treat non-neurological symptoms of Gaucher disease, Fabry disease, few mucopolysaccharidoses and Pompe disease. Unfortunately, in GLD, a primarily neurological LSD, ERT agents, as large molecular weight molecules unable to cross the blood-brain barrier, which makes this an inefficacious therapeutic approach. In GLD, increasing the residual GALC activity just above the critical threshold (~10% of wild type enzymatic activity), the cytotoxic levels of psychosine will be reduced, avoiding the OLGs apoptosis and the subsequent demyelination process. This will translate in disease stabilization and amelioration of GLD patient symptoms.
A cell-based assay in 1,536-well plate format was developed to implement a quantitative high-throughput screening (qHTS) assay using GLD-disease relevant cells to identify small molecules that produce enhancements of the residual enzymatic activity levels of mutants GALC found and prevalent in GLD patients. Compounds that are active may therefore have some therapeutic application for GLD. After the treatment of live cells for a determined period, using a fluorescent GALC specific substrate, the mutant residual GALC activity is measured. This cell-based qTHS assay was used to screen part of the MLPCN library for small molecule able to increase the mutant GALC enzymatic activity. In this assay, increased fluorescent signal corresponds to enhanced levels of mutant GALC residual enzymatic activity. Activation is the desired outcome for this assay.
NIH Chemical Genomics Center [NCGC]
NIH Molecular Libraries Probe Centers Network [MLPCN]
Assay Submitter (PI): Gustavo Maegawa MD,PhD, University of Florida, Gainesville, FL
2)#Two cell lines were established for the assay: 145M-Twi-hGALC-G270D (brain-derived Twitcher cell line stably expressing human GALC-G270D) and 145M-Twi-hGALC-WT (same 145M-Twi stably expressing human GALC wild type). The Twitcher is the murine C57B/6 model for GLD with naturally occurring homozygous nonsense GALC mutation. The 145M-Twi cell line was established at Maegawa lab (Ribbens J et al 2014).
a.#Media: DMEM/F12 (1:1) with 10% fetal bovine-serum (FBS) with penicillin/streptomycin (PS-1X - 100 I.U./mL of penicillin+100 ug/mL of streptomycin).
b.#The 6-Hexadecanoylamino-4-methylumbelliferyl-b-D-galactoside (HMU-B-gal) substrate was prepared as per Wiederschain et al 1992. Using 20-mL borosilicate tubes, 2.20 mg of HMU-b-Gal was added in each tube to prepare substrate-film with a final air-nitrogen stream evaporation to remove all diluent solvents.
c.#The HMUb-Gal substrate buffer consists of 0.2 M Na2HPO4 (sodium phosphate dibasic)/ 0.1 M Citric Acid with the pH adjusted to 5.2 using HCl. Sodium Azide at 0.02% and Sodium Taurocholate (NaTC) at 1 mg/mL were added to this substrate buffer.
d.#The HMU-b-Gal stopping buffer consist of 0.5 M NaHCO3 (sodium bicarbonate) /0.5 M Na2CO3 (sodium carbonate). […] Triton X-100 at 0.25% was added.
4)#Preparation of HMU-b-Gal substrate tubes
Adding 18.6 mL of the HMUb-Gal substrate buffer to each 20-mL tube (2.20 mg of HMU-b-Gal) will reach a concentration of 0.2 mM. Vortex well the tube until the solution is fully homogenized (clear cloudy solution). […]

Structure (SMILES) | activation
Cc1ccc2c(c1)C(Cc1nc3ccccc3c(=O)n1-c1ccc(Br)cc1)C(=O)N2 (centres undefined) | inactive: -15.5%
O=C(NC(O)C(Cl)(Cl)Cl)NC(O)C(Cl)(Cl)Cl (centres undefined) | inactive: -10.3%
CCN(CC)CCN1C(=O)CN=C(c2ccccc2F)c2cc(Cl)ccc21 | inactive: -10.5%
O=C(COc1ccccc1F)N1CCN(Cc2cc(=O)n3nc(-c4ccccc4Cl)sc3n2)CC1 | inactive: -17%
CC(=O)NC1CCSC1=O (centres undefined) | inactive: -16.5%
COc1ccc2c(c1OC)C(=O)O[C@H]2[C@@H]1c2cc3c(cc2CCN1C)OCO3 | inactive: -11%
CC1(C)CC/C(=C/c2ccc(Cl)cc2)C1(O)Cn1cncn1 (centres undefined) | inactive: -7.86% [at 114 µM]
Cc1cccc(OCC(=O)N2CCN(CCc3ccccn3)CC2)c1 | inactive: -12.9%
O=C(Nc1ccc(F)c([N+](=O)[O-])c1)c1cccn(Cc2ccccc2)c1=O | inactive: -4.53%
CCCCCCC(=O)CCCCCC/C=C/C[C@@H](O)[C@H](O)[C@@](N)(CO)C(=O)O | inactive: -16.7% [at 23.8 µM]
COP(=S)(OC)Oc1ccc(Sc2ccc(OP(=S)(OC)OC)cc2)cc1 | inactive: -9.68%
C[C@]12CC[C@H]3[C@@H](CCC4=CC(=O)CC[C@@H]43)[C@@H]1CC[C@@H]2OC(=O)CCc1ccco1 | inactive: -12.2%
C[C@]12CC[C@@H]3c4ccc(O)cc4C[C@@H](CCCCCCCCCS(=O)CCCC(F)(F)C(F)(F)F)[C@H]3[C@@H]1CC[C@@H]2O (some centres undefined) | inactive: -13.5%
Cc1ccc(Cn2cccc(C(=O)Nc3ccc4c(c3)OCO4)c2=O)cc1 | inactive: -19.7%
C[C@]12C/C(=C/O)C(=O)C[C@@H]1CC[C@@H]1[C@@H]2CC[C@@]2(C)[C@H]1CC[C@]2(C)O | inactive: -11.8%
C[C@H]1CNCCc2ccc(Cl)cc21 | inactive: -4.79%
COc1ccc(-c2nc(CSCC(=O)N3CCN(c4ccc(F)cc4)CC3)c(C)o2)cc1 | inactive: -42.6%
CCCNC(=O)c1cnn2c(C)c(Cc3c(C)cc(C)cc3C)c(C)nc12 | inactive: -42.3%
CCCOc1ccc(C2SCC(=O)Nc3c2c(C)nn3-c2cccc(C)c2)cc1OC (centres undefined) | inactive: 0.247%
COc1cccc(NC(=O)Cn2cc(C(=O)c3ccccc3)c3ccccc32)c1 | inactive: 6.05%
CNC(C)Cc1ccccc1OC (centres undefined) | inactive: -11.7%
C=C1C[C@@H]2[C@H](CC[C@]3(C)C(=O)CC[C@@H]23)[C@@]2(C)C=CC(=O)C=C12 | inactive: -23.6%
CC(=O)[C@H]1CC[C@H]2[C@@H]3CC[C@H]4C[C@H](O)CC[C@]4(C)[C@H]3C(=O)C[C@]12C | inactive: -8.68%
CCN(CC)CCSc1nc2ccccc2c(=O)n1-c1ccc(Cl)cc1 | inactive: -20.6%
Cc1cccc(Cn2cccc(C(=O)Nc3ccc4c(c3)OCCO4)c2=O)c1 | inactive: -12.7%
COc1ccccc1N1CCNCC1 | inactive: -8.86%
CCOc1ccc(CN(CCc2ccc3c(c2)OCO3)Cc2cccc(OC)c2)cc1 | inactive: -22.9%

Structure (SMILES) | activation
COc1ccc(C)cc1NC(=O)N(Cc1ccc2c(c1)OCO2)C1CCN(Cc2ccccc2)CC1 | inactive: -8.53%
CCOc1ccc(NC(=O)Cn2cc(C(=O)c3ccccc3)c3ccccc32)cc1 | inactive: -6.84%
CC(C)C12CN3CC(C(C)C)(CN(C1)C3c1ccccn1)C2=O (centres undefined) | inactive: -13.6%
Cc1ccc(-n2c(/C=C\c3ccc(F)cc3)nc3ccccc3c2=O)cc1Cl | inactive: -10%
COc1ccc(C(c2ccc(OC)cc2)C(Cl)(Cl)Cl)cc1 | inactive: -15.6% [at 114 µM]
CCOC(=O)NC(O)C(Cl)(Cl)Cl (centres undefined) | inactive: -14.9%
Cc1cccc(-c2nc(CN3C(=O)CN=C(c4ccccc4)c4ccccc43)c(C)o2)c1 | inactive: -29.8%
Cc1ccc(NC(=O)Cn2cc(C(=O)c3ccccc3)c3ccccc32)cc1 | inactive: -25.4%
Cn1c(=O)n(C)c2cc(CNCCc3ccc(F)cc3)ccc21 | inactive: -29.1%
CCOC(=O)C(c1c(O)c2ccccc2oc1=O)c1c(O)c2ccccc2oc1=O | inactive: -16.2%
Cc1ccc(Cl)cc1NC(=O)N(Cc1ccc2c(c1)OCO2)C1CCN(Cc2ccccc2)CC1 | inactive: -5.91%
CCOP(=S)(OCC)Oc1ccc2c(C)c(Cl)c(=O)oc2c1 | inactive: -14.2%
COC[C@@H](NC(C)=O)C(=O)NCc1ccccc1 | inactive: -15.6%
Cc1ccc2nc(NC(=O)c3cccn(Cc4ccc(Cl)cc4)c3=O)sc2c1 | inactive: -15.7%
CN1C(=O)[C@@H](NC(=O)c2cc3ccccc3[nH]2)N=C(c2ccccc2)c2ccccc21 | inactive: -0.599%
c1cc2c(c(N3CCNCC3)c1)OCCO2 | inactive: -14.5%
COc1ccc(C(=O)c2c(C)n(CCN3CCOCC3)c3ccccc23)cc1 | inactive: -13.6%
O=C(O)Cc1ccccc1 | inactive: 5.35%
CCOC(=O)c1ncn2c1CN(C)C(=O)c1c(I)cccc1-2 | inactive: -11.2%
Clc1cccc(SC2CCNCC2)n1 | inactive: -12.5%
CCCCC1C(=O)NC(=O)N(C2CCCCC2)C1=O (centres undefined) | inactive: -10.3%
Cc1ccc(-n2c(/C=C/c3ccc(Br)s3)nc3ccccc3c2=O)cc1 | inactive: -19.1%
CC[n+]1c(-c2ccccc2)c2cc(N)ccc2c2ccc(N)cc21 | inactive: -14%
COc1ccc(Cl)cc1NC(=O)CN1C(=O)CN=C(c2ccccc2)c2cc(Cl)ccc21 | inactive: 2.81%
NP(N)(=O)NC(=O)c1ccc(F)cc1 | inactive: -15.7%
O=c1c2ccccc2nc(/C=C/c2cccc3ccccc23)n1-c1ccccc1Cl | inactive: -7.69%
Cc1cccc(-n2c(/C=C/c3ccccc3O)nc3ccccc3c2=O)c1 | inactive: -7.42%
